Results on 23 compounds are retold here after PubChem BioAssay AID2202238 (Ras Initiative Chemistry Research Team, Frederick National …, 2025).

Some of the results follow. Further columns of the screen follow, without active or inactive calls.

The target of this test is GTPase KRas (Homo sapiens) (UniProt P01116). The experiment in a line: Covalent labelling of cysteine mutants by fragments, read by mass spectrometry (AID 2202238). The arrangement: protein at 5 µM with 500 µM competing thiol for 1.5 h. As to conditions: KRAS G12D cysteine mutants, disulfide tethering, MALDI-TOF labeling, stronger effect = higher value, fragment at 500 µM.
Sequence of UniProt P01116 (P01116 whole entry, looked up, the tested form may be a part): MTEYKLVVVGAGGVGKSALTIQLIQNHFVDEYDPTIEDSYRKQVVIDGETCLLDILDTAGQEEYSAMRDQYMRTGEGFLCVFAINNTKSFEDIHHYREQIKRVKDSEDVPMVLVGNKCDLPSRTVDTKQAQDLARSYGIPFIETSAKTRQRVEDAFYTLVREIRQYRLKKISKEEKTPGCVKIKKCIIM
[1] abbreviates: measured here: G60C mutant labeling.
Where [2] appears, read: measured here: G75C mutant labeling.
Setting [3] is: measured here: H94C mutant labeling.
Setting [4] is: measured here: I36C mutant labeling.
The mark [5] stands for this setting: measured here: L120C mutant labeling.
Where [6] appears, read: measured here: M67C mutant labeling.
The mark [7] stands for this setting: measured here: M72C mutant labeling.
Setting [8] is: measured here: N26C mutant labeling.
The mark [9] stands for this setting: measured here: N86C mutant labeling.
[10] abbreviates: measured here: P121C mutant labeling.
The mark [11] stands for this setting: measured here: S122C mutant labeling.
[12] abbreviates: measured here: S136C mutant labeling.

Take `Cc1cc(-n2cccc2)ccc1C(=O)NCCS`: the percent labeling is, setting by setting: under setting [1], 31.2%; under setting [2], 9.8%; under setting [3], 21.9%; under setting [4], 12.5%; under setting [5], 16.7%; under setting [6], 14.6%. The percent labeling by setting is: under setting [7], 34.3%; under setting [8], 30.7%; under setting [9], 8.4%; under setting [10], 19.2%; under setting [11], 11.7%; under setting [12], 17.8%.
As to `CCCn1c(C(=O)NCCS)cc2ccccc21`, the percent labeling by setting is: under setting [1], 33.6%; under setting [2], 11.1%; under setting [3], 12.4%; under setting [4], 5.2%; under setting [5], 10.8%; under setting [6], 4.3%. The percent labeling reads like this: under setting [7], 28%; under setting [8], 28%; under setting [9], 6%; under setting [10], 13.4%; under setting [11], 4.4%; under setting [12], 10.3%.
As for `O=C(CCS)NCC(=O)NC1CCC(O)CC1` (stereo not drawn), the percent labeling under setting [2] came out at 4.8%; the percent labeling under setting [3] was 22.5%; the percent labeling under setting [4] turned out to be 29.9%; the percent labeling under setting [5] stood at 40.3%; the percent labeling under setting [6] is 27.9%; the percent labeling under setting [7] worked out at 11.7%. In addition, the percent labeling under setting [9] amounted to 25.4%, the percent labeling under setting [10] came out at 33.6%, the percent labeling under setting [11] stood at 32% and the percent labeling under setting [12] was 41.6%.
Regarding `O=C(CC1CC(=O)Nc2ccccc21)NCCS` (stereo not drawn), the percent labeling under setting [1] came to 43.7%; the percent labeling under setting [2] was 16.3%; the percent labeling under setting [3] was 35.5%; the percent labeling under setting [4] was determined as 30.8%; the percent labeling under setting [5] is 30%; the percent labeling under setting [6] was 42.5%. Besides, the percent labeling came to 24.2% under setting [7]; 39.5% under setting [8]; 32.1% under setting [9]; 32.4% under setting [10]; 34% under setting [11]; 47.2% under setting [12].
For the compound `Cc1onc(-c2ccsc2)c1C(=O)NCCS`, the percent labeling by setting is: under setting [1], 40.2%; under setting [2], 12.8%; under setting [3], 29.1%; under setting [4], 18.6%; under setting [5], 22.5%; under setting [6], 25.4%. Besides, the percent labeling is, setting by setting: under setting [7], 28.9%; under setting [8], 32.7%; under setting [9], 18.1%; under setting [10], 20.4%; under setting [11], 18.9%; under setting [12], 33.6%.
On to `O=C(CCc1ncc[nH]1)NCCS`, for which the percent labeling by setting is: under setting [1], 28.4%; under setting [2], 23.2%; under setting [3], 28.4%; under setting [4], 26.1%; under setting [5], 30%; under setting [6], 27.8%. The percent labeling under setting [7] worked out at 15.4%; the percent labeling under setting [8] amounted to 30.4%; the percent labeling under setting [9] was 26.5%; the percent labeling under setting [10] came out at 34.3%; the percent labeling under setting [11] was 26.6%; the percent labeling under setting [12] was 41%.
As to `CC1CCC(C(=O)NCCS)C2C(=O)N(c3ccccc3)C(=O)C12` (stereo not drawn), the percent labeling under setting [1] amounted to 35.8%; the percent labeling under setting [2] is 24.1%; the percent labeling under setting [3] is 26.1%; the percent labeling under setting [4] came to 14.3%; the percent labeling under setting [5] is 32.5%; the percent labeling under setting [6] stood at 61.9%. Moreover, the percent labeling is 37.1% under setting [7]; 21.9% under setting [8]; 15.5% under setting [9]; 16.8% under setting [10]; 16.5% under setting [11]; 37.3% under setting [12].
In the case of `O=C(NCCS)C1CCC(c2ccccc2)CC1` (stereo not drawn), the percent labeling runs as follows: under setting [1], 24.1%; under setting [2], 11.1%; under setting [3], 15.1%; under setting [4], 9.8%; under setting [5], 11.1%; under setting [6], 6.9%. This compound also came in with a percent labeling under setting [7] of 40.9%; a percent labeling under setting [8] of 28.8%; a percent labeling under setting [9] of 5.5%; a percent labeling under setting [10] of 10.3%; a percent labeling under setting [11] of 10.7%; a percent labeling under setting [12] of 15.5%.
Consider `O=C(CCS)NC1CC(N2CCC(C(F)(F)F)CC2)C1` (stereo not drawn), for which the percent labeling is 12.5% under setting [2]; 34.2% under setting [3]; 34.8% under setting [4]; 28.3% under setting [5]; 39.1% under setting [6]; 17% under setting [7]. Besides, the percent labeling was 20.6% under setting [9], 32.9% under setting [10], 33.5% under setting [11] and 46.5% under setting [12].
As for `Cc1ccc(C(=O)NCCS)cc1N1C(=O)C2CCCCC2C1=O` (stereo not drawn), the percent labeling turned out to be 24.1% under setting [1]; 10.6% under setting [2]; 16.2% under setting [3]; 11.7% under setting [4]; 26.3% under setting [5]; 10.7% under setting [6]. Moreover, the percent labeling runs as follows: under setting [7], 28.5%; under setting [8], 28.1%; under setting [9], 13.4%; under setting [10], 11.1%; under setting [11], 11.8%; under setting [12], 26.9%.
Consider `O=C(CCS)N1CCC(c2nn(-c3ccccc3)cc2F)CC1`, for which the percent labeling runs as follows: under setting [2], 21.1%; under setting [3], 23.6%; under setting [4], 22%; under setting [5], 13.7%; under setting [6], 27.1%; under setting [7], 28.5%. In addition, the percent labeling under setting [9] came to 15.8%, the percent labeling under setting [10] came out at 17.7%, the percent labeling under setting [11] turned out to be 10.5% and the percent labeling under setting [12] came to 28.8%.
Regarding `Cn1nc2c(c1NC(=O)CCS)CCCC2`, the percent labeling was 17.6% under setting [2]; 38.6% under setting [3]; 44.9% under setting [4]; 23.7% under setting [5]; 35.1% under setting [6]; 31.7% under setting [7]. Also, the percent labeling was 35.4% under setting [9], 38.8% under setting [10], 31.4% under setting [11] and 49.2% under setting [12].
Take `Cc1c(Br)ccc2nc(C(=O)NCCS)cn12`: the percent labeling was found to be 10.7% under setting [1]; 6.3% under setting [2]; 7.5% under setting [3]; 9.9% under setting [4]; 8.2% under setting [5]; 11.1% under setting [6]. The compound further showed a percent labeling under setting [7] of 35%; a percent labeling under setting [8] of 20.7%; a percent labeling under setting [9] of 5.3%; a percent labeling under setting [10] of 26.3%; a percent labeling under setting [11] of 4.9%; a percent labeling under setting [12] of 14%.
On to `Cc1cnc(OC2CCN(C(=O)CCS)CC2)nc1`, for which the percent labeling was 13.3% under setting [2]; 28.9% under setting [3]; 37.2% under setting [4]; 34% under setting [5]; 40% under setting [6]; 30% under setting [7]. The percent labeling stood at 20.7% under setting [9], 35.7% under setting [10], 37.3% under setting [11] and 55.2% under setting [12].
`Cc1noc(C)c1CN(C(=O)CCS)c1ccccc1`: the percent labeling reads like this: under setting [2], 20.5%; under setting [3], 56.5%; under setting [4], 41.4%; under setting [5], 35.8%; under setting [6], 44.2%; under setting [7], 46.5%. Besides, the percent labeling under setting [9] amounted to 32.5%, the percent labeling under setting [10] amounted to 34.4%, the percent labeling under setting [11] came out at 32.9% and the percent labeling under setting [12] amounted to 71.3%.
As for `O=C(NCCS)c1cc(C2CCOCC2)no1`, the percent labeling came to 30.1% under setting [1]; 19.1% under setting [2]; 31.5% under setting [3]; 32% under setting [4]; 41.1% under setting [5]; 36.5% under setting [6]. The percent labeling reads like this: under setting [7], 48.2%; under setting [8], 29.6%; under setting [9], 25.9%; under setting [10], 32.4%; under setting [11], 34.8%; under setting [12], 48.1%.
In the case of `O=C(COc1nsnc1N1CCOCC1)NCCS`, the percent labeling by setting is: under setting [1], 39.5%; under setting [2], 17.2%; under setting [3], 40.3%; under setting [4], 29%; under setting [5], 35.9%; under setting [6], 39.2%. The percent labeling reads like this: under setting [7], 28.4%; under setting [8], 39.8%; under setting [9], 27%; under setting [10], 31.7%; under setting [11], 31.1%; under setting [12], 45.9%.
For the compound `O=C(CCS)N1CCN(c2cccc(F)c2F)CC1`, the percent labeling runs as follows: under setting [2], 19.5%; under setting [3], 33.8%; under setting [4], 31.2%; under setting [5], 31.9%; under setting [6], 39.4%; under setting [7], 42.8%. The percent labeling turned out to be 22.8% under setting [9], 31% under setting [10], 31% under setting [11] and 51.7% under setting [12].
With `Cc1ccc2nc(COc3ccc(C(=O)NCCS)cc3)cn2c1`, the percent labeling is, setting by setting: under setting [1], 15.3%; under setting [2], 7.6%; under setting [3], 8.5%; under setting [4], 5.8%; under setting [5], 8.6%; under setting [6], 7.5%. Moreover, the percent labeling worked out at 39.4% under setting [7]; 26.6% under setting [8]; 4.7% under setting [9]; 5.3% under setting [10]; 3.8% under setting [11]; 5.6% under setting [12].
With `O=C(NCCS)c1nc(C2CC2)n(-c2ccccc2)n1`, the percent labeling by setting is: under setting [1], 32.4%; under setting [2], 25.5%; under setting [3], 30.7%; under setting [4], 18.2%; under setting [5], 55.2%; under setting [6], 26.1%. Besides, the percent labeling worked out at 56.8% under setting [7]; 39.2% under setting [8]; 21.3% under setting [9]; 26.8% under setting [10]; 25.3% under setting [11]; 66.4% under setting [12].
In the case of `CCOC(=O)c1ccnc(C2(NC(=O)CCS)CC2)n1`, the percent labeling came out at 6.4% under setting [2]; 32.7% under setting [3]; 36.8% under setting [4]; 28.2% under setting [5]; 30.4% under setting [6]; 16.8% under setting [7]. In addition, the percent labeling by setting is: under setting [9], 27.3%; under setting [10], 26.7%; under setting [11], 32.2%; under setting [12], 46.9%.
For `O=C(CCC1Cc2ccccc2NC1=O)NCCS` (stereo not drawn), the percent labeling stood at 46.8% under setting [1]; 22.3% under setting [2]; 37.2% under setting [3]; 33.5% under setting [4]; 40.1% under setting [5]; 46% under setting [6]. The compound further showed a percent labeling under setting [7] of 42.1%; a percent labeling under setting [8] of 43.1%; a percent labeling under setting [9] of 30.9%; a percent labeling under setting [10] of 39.2%; a percent labeling under setting [11] of 39.8%; a percent labeling under setting [12] of 56.5%.
As to `O=C(CCS)N1CCc2[nH]cnc2C1c1ccccc1` (stereo not drawn), the percent labeling runs as follows: under setting [2], 38.8%; under setting [3], 49.5%; under setting [4], 46.1%; under setting [5], 41.2%; under setting [6], 58.3%; under setting [7], 52.8%. In addition, the percent labeling is, setting by setting: under setting [9], 37%; under setting [10], 34.6%; under setting [11], 35.5%; under setting [12], 75.2%.
